According to a collection of fitness landscapes (doi:10.1016/j.celrep.2020.107928):
Whole data set: some 81,000 sequences, median “one-hybrid fitness for binding parS DNA” near -0.17, cut for the highest 2% near 0.51. The list shows a part of the results.

B1: Caulobacter ParB omega fusion; a variant is named by its letters at X, in order, B8GW30 (parent)
chain: MESVVVGEPGMSEGRRGLGRGLSALLGEVDAAPAQAPGEQLGGSREAPIEILQRNPDQPRRTFREEDLEDLSNSIREKGVLQPILVRPSPDTAGEYQIVAGERAWRAAQRAGLKTVPIMVRELDDLAVLEIGIIENVQRADLNVLEEALSYKVLMEKFERTQENIAQTIGKSXSHVANXMRLLXLPDEVQSYLVSGELTAXHARAIAAAADPVALAKQIIEGGLSVRETEALARKAPNLSAGKSKGGRPPRVKDTDTQALESDLSSVLGLDVSIDHRGSTGTLTITYATLEQLDDLCNRLTRGI

Variants of: B1
Test: one-hybrid fitness for binding parS DNA (scaled: cognate 1, non-cognate 0); higher = stronger binding
Details: with parS DNA site
Method in brief: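 In E. coli USO, a HIS3 reporter with its site placed 19 bp from the promoter was used to select Caulobacter ParB variants randomised at four specificity codons. Growth lasted 48 hours at 37°C on histidine-free M9 containing 0.1 mM IPTG and 5 mM 3-AT. Fitness was taken as the log change in variant-to-wild-type read ratio from Illumina sequencing of pre- and post-selection plasmids, rescaled between the non-cognate and cognate sites.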

one-hybrid fitness for binding parS DNA, 0.419:
RQAN

one-hybrid fitness for binding parS DNA, 0.609:
RCMA

one-hybrid fitness for binding parS DNA, 0.202:
YRGG

one-hybrid fitness for binding parS DNA, 0.707:
RHFT

one-hybrid fitness for binding parS DNA, 0.209:
RFGF

one-hybrid fitness for binding parS DNA, 0.796:
RSKT

one-hybrid fitness for binding parS DNA, 0.252:
QTKR

one-hybrid fitness for binding parS DNA, 0.475:
RGYT

one-hybrid fitness for binding parS DNA, 0.374:
RRWY

one-hybrid fitness for binding parS DNA, 0.955:
RCIG

one-hybrid fitness for binding parS DNA, ≤ 0.2:
NRWN
LDMG
TRRV
IHGT
KCLG
ESPE
RLPH
QTFV
ETNF
GMIM
LGTV
RRMM
MVTV
IVDC
IRDS
PGLV
ATVM
MNLF
GACR
YPQT
KVDR
QIDI
NKSW
DRSA
GKKR
TVTF
PALL
NMSG
AEWG
SWNY
VGMM
SWHR
SNRR
HQNP
LVKE
EMRF
IRHA
WNER
HGDA
VQYC
CPRQ
NEHG
KEVS
IRAH
PPRV
TPFT
NQPM
RSDK
EPAT
CQTW
QTHM
QDNG
PQDG
QWPW
QSIM
YPAF
ANIP
NGIG
AHPP
DITT
SYRS
ITMS
EFPR
HEHQ
TRQN
YQPS
GHKT
RAIQ
DAQE
WTRL
CKHC
PESI
SYPN
VCTN
TMNC
GGVG
EQNT
QVNQ
SLCL
KLRS
VLVS
PAAM
MYST
REPQ
HVND
CCFR
EDNV
QWLP
TNMD
RREE
QSQF
IKDS
NLYC
IVCC
RNID
QPRM
YARI
IDNL
STAF
DNIT
QRYG
HFVY
GYGF
RPPK
SYTG
HSWL
KTAQ
GGSS
LSGT
QSRL
YLRW
CLWS
PWSV
QVAA
SLFD
DSNR
PEDN
ENFR
LLFS
TLPE
NITL
CQKC
QLYG
QGYG
PSKK
SPAG
MQVS
RPKS
VNAT
MHQG
QLVN
ASRA
NIVG
MLCT
ACQK
RDMA
PGTR
SPTR
KTYV
QMHD
QAPF
RLLI
TMAA
TMRF
SSWH
ESSM
ADLT
GRYT
PSGI
QDAK
CIQL
SKYE
FLCC
YLYF
DGPD
MKDG
VAGT
RRLQ
HKMV
YLAV
RILR
TPRW
RNQL
PLYS
PYNS
QNAV
TKTI
MAGG
VKGA
VRQQ
QVGM
MNAI
SRFP
YNSS
YRLQ
MYYL
NNSG
DRQQ
ATHE
MFYS
NDAG
TMHG
SGQP
ARLH
PHLR
CMLA
PGGY
EAPC
SKDF
RYSI
DCIR
QVAV
SPLH
IKRW
VDSS
GVHR
SDAW
FSHN
LNGR
DPYR
LYTS
YHHC
NVRC
GLCE
VVRK
WLKM
AMCS
RHWD
RAIV
CMCR
IVLA
QTSI
VSEE
VELG
NALH
KMYL
GQLV
QEKC
SDCR
PTTF
VRHV
AHQN
VLVF
STWI
FTSG
LAPW
VGEL
QVFA
HFNG
YRSV
GYFR
EKTY
SNAM
LFSD
NYNH
SEHM
SHQR
DAAK
YERT
MRMA
PKSR
NFMF
VDCW
GTMG
HHRK
GMVC
TEFL
DMSG
GRVR
NYPS
SHQC
SGHS
HVWR
QPTM
HALP
ELCI
RCGL
WMPT
ASIH
VLDR
TVGL
NVQT
MRHE
CVIC
VWSI
QEKG
ILYS
LVVC
CHRC
TLNF
VYTI
QPWI
DSHR
HAPQ
NKTK
KARL
GHLR
EMRC
HMAG
RQAE
GKNG
RFLP
CMMP
MWAS
TTIW
YRAH
HDHL
PGAS
QSSR
QYFV
LQPT
DSNT
LQLL
TKAR
HSPL

one-hybrid fitness for binding parS DNA, 0.576:
RSMA
